Some of the results follow. Cut-off read from the data, not from the text of the source: active = 3.2 or more and inactive = the rest. Only a few entries rise above the background.
Target: SHP2 C-SH2 domain E139D
Test: enrichment score (SH2-bound / input frequency) (ratio); bacterial display of known human phosphotyrosine sites (pTyr-Var adds point mutants) read by sequencing; higher = stronger binding; tyrosines were phosphorylated by kinases first
Settings: peptide library: Human pTyr
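Note: displayed peptides selected on beads carrying the immobilized SH2 domain, with library peptides lacking any tyrosine serving as negative controls.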

Enrichment score, inactive:
CYKNRPDYVSEEEED [RBP2_HUMAN_2666] 1.43
GSGGSGGYGGRSRAG [ROA2_HUMAN_347_YA] 0.579
YVQLPATYMNLGPST [RON_HUMAN_1360] 0.906
SKKKRIIYDSDSESE [RFC1_HUMAN_67] 0.79
DILDREAYSVQQHRH [RON_HUMAN_1239_YA] 0.783
EIASADAYRVQSKSL [ROR1_HUMAN_646_YA] 0.644
MLPESTVYGDVDLSN [ROBO1_HUMAN_1038] 0.579
ALRTLSEYARPHVMS [RERE_HUMAN_1259] 1.24
AFKSAVHYDEESGSE [ATG2B_HUMAN_1012] 0.872
SGGGSGGYGSRRFGG [ROA3_HUMAN_373] 0.679
GRSSGSPYGGGYGSG [ROA3_HUMAN_360] 0.494
FGLSRDVYEEDSYVK [RET_HUMAN_900] 0.544
MMVKRRDYLDLAAST [RET_HUMAN_1015] 0.808
NVAAGQDYRNKAKAP [RAPH1_HUMAN_456_YA] 0.763
TNTGFPRYPNDSVYA [RET_HUMAN_1090] 0.589
TEIMSMGYEREQVIA [RD23B_HUMAN_202] 0.513
DILDREYYSVQQHRH [RON_HUMAN_1239] 0.783
YSPTSPKYSPTSPTY [RPB1_HUMAN_1874] 0.544

Target: SHP2 C-SH2 domain wild-type
Test: as above
Settings: peptide library: Human pTyr

Enrichment score, inactive:
CYKNRPDYVSEEEED [RBP2_HUMAN_2666] 1.58
GSGGSGGYGGRSRAG [ROA2_HUMAN_347_YA] 0.634
YVQLPATYMNLGPST [RON_HUMAN_1360] 1.39
SKKKRIIYDSDSESE [RFC1_HUMAN_67] 0.665
DILDREAYSVQQHRH [RON_HUMAN_1239_YA] 0.547
EIASADAYRVQSKSL [ROR1_HUMAN_646_YA] 0.513
MLPESTVYGDVDLSN [ROBO1_HUMAN_1038] 0.662
ALRTLSEYARPHVMS [RERE_HUMAN_1259] 1.03
AFKSAVHYDEESGSE [ATG2B_HUMAN_1012] 0.825
SGGGSGGYGSRRFGG [ROA3_HUMAN_373] 0.542
GRSSGSPYGGGYGSG [ROA3_HUMAN_360] 0.496
FGLSRDVYEEDSYVK [RET_HUMAN_900] 0.528
MMVKRRDYLDLAAST [RET_HUMAN_1015] 0.666
NVAAGQDYRNKAKAP [RAPH1_HUMAN_456_YA] 0.834
TNTGFPRYPNDSVYA [RET_HUMAN_1090] 0.56
TEIMSMGYEREQVIA [RD23B_HUMAN_202] 0.511
DILDREYYSVQQHRH [RON_HUMAN_1239] 0.715
YSPTSPKYSPTSPTY [RPB1_HUMAN_1874] 0.802

Target: SHP2 N-SH2 domain L43F
Test: as above
Settings: peptide library: Human pTyr

Enrichment score, inactive:
CYKNRPDYVSEEEED [RBP2_HUMAN_2666] 1.52
GSGGSGGYGGRSRAG [ROA2_HUMAN_347_YA] 0.571
YVQLPATYMNLGPST [RON_HUMAN_1360] 0.913
SKKKRIIYDSDSESE [RFC1_HUMAN_67] 0.842
DILDREAYSVQQHRH [RON_HUMAN_1239_YA] 0.669
EIASADAYRVQSKSL [ROR1_HUMAN_646_YA] 0.621
MLPESTVYGDVDLSN [ROBO1_HUMAN_1038] 0.611
ALRTLSEYARPHVMS [RERE_HUMAN_1259] 1.2
AFKSAVHYDEESGSE [ATG2B_HUMAN_1012] 0.908
SGGGSGGYGSRRFGG [ROA3_HUMAN_373] 0.612
GRSSGSPYGGGYGSG [ROA3_HUMAN_360] 0.525
FGLSRDVYEEDSYVK [RET_HUMAN_900] 0.737
MMVKRRDYLDLAAST [RET_HUMAN_1015] 0.786
NVAAGQDYRNKAKAP [RAPH1_HUMAN_456_YA] 0.705
TNTGFPRYPNDSVYA [RET_HUMAN_1090] 0.662
TEIMSMGYEREQVIA [RD23B_HUMAN_202] 0.809
DILDREYYSVQQHRH [RON_HUMAN_1239] 0.694
YSPTSPKYSPTSPTY [RPB1_HUMAN_1874] 0.465

Target: SHP2 N-SH2 domain T42A
Test: as above
Settings: peptide library: Human pTyr

Enrichment score, inactive:
CYKNRPDYVSEEEED [RBP2_HUMAN_2666] 1.21
GSGGSGGYGGRSRAG [ROA2_HUMAN_347_YA] 0.518
YVQLPATYMNLGPST [RON_HUMAN_1360] 1.1
SKKKRIIYDSDSESE [RFC1_HUMAN_67] 0.572
DILDREAYSVQQHRH [RON_HUMAN_1239_YA] 0.668
EIASADAYRVQSKSL [ROR1_HUMAN_646_YA] 0.656
MLPESTVYGDVDLSN [ROBO1_HUMAN_1038] 0.568
ALRTLSEYARPHVMS [RERE_HUMAN_1259] 1.14
AFKSAVHYDEESGSE [ATG2B_HUMAN_1012] 0.844
SGGGSGGYGSRRFGG [ROA3_HUMAN_373] 0.716
GRSSGSPYGGGYGSG [ROA3_HUMAN_360] 0.473
FGLSRDVYEEDSYVK [RET_HUMAN_900] 0.476
MMVKRRDYLDLAAST [RET_HUMAN_1015] 0.764
NVAAGQDYRNKAKAP [RAPH1_HUMAN_456_YA] 0.87
TNTGFPRYPNDSVYA [RET_HUMAN_1090] 0.604
TEIMSMGYEREQVIA [RD23B_HUMAN_202] 0.555
DILDREYYSVQQHRH [RON_HUMAN_1239] 0.787
YSPTSPKYSPTSPTY [RPB1_HUMAN_1874] 0.969

Target: SHP2 N-SH2 domain T52S
Test: as above
Settings: peptide library: Human pTyr

Enrichment score, inactive:
CYKNRPDYVSEEEED [RBP2_HUMAN_2666] 1.4
GSGGSGGYGGRSRAG [ROA2_HUMAN_347_YA] 0.974
YVQLPATYMNLGPST [RON_HUMAN_1360] 1.02
SKKKRIIYDSDSESE [RFC1_HUMAN_67] 0.551
DILDREAYSVQQHRH [RON_HUMAN_1239_YA] 0.581
EIASADAYRVQSKSL [ROR1_HUMAN_646_YA] 0.56
MLPESTVYGDVDLSN [ROBO1_HUMAN_1038] 0.52
ALRTLSEYARPHVMS [RERE_HUMAN_1259] 1.05
AFKSAVHYDEESGSE [ATG2B_HUMAN_1012] 0.963
SGGGSGGYGSRRFGG [ROA3_HUMAN_373] 0.546
GRSSGSPYGGGYGSG [ROA3_HUMAN_360] 0.562
FGLSRDVYEEDSYVK [RET_HUMAN_900] 0.735
MMVKRRDYLDLAAST [RET_HUMAN_1015] 1.13
NVAAGQDYRNKAKAP [RAPH1_HUMAN_456_YA] 1.15
TNTGFPRYPNDSVYA [RET_HUMAN_1090] 0.686
TEIMSMGYEREQVIA [RD23B_HUMAN_202] 0.516
DILDREYYSVQQHRH [RON_HUMAN_1239] 0.632
YSPTSPKYSPTSPTY [RPB1_HUMAN_1874] 0.59

Target: SHP2 N-SH2 domain wild-type
Test: as above
Settings: peptide library: Human pTyr

Enrichment score, inactive:
CYKNRPDYVSEEEED [RBP2_HUMAN_2666] 1.42
GSGGSGGYGGRSRAG [ROA2_HUMAN_347_YA] 0.856
YVQLPATYMNLGPST [RON_HUMAN_1360] 1.16
SKKKRIIYDSDSESE [RFC1_HUMAN_67] 0.641
DILDREAYSVQQHRH [RON_HUMAN_1239_YA] 0.603
EIASADAYRVQSKSL [ROR1_HUMAN_646_YA] 0.68
MLPESTVYGDVDLSN [ROBO1_HUMAN_1038] 0.734
ALRTLSEYARPHVMS [RERE_HUMAN_1259] 1.44
AFKSAVHYDEESGSE [ATG2B_HUMAN_1012] 0.823
SGGGSGGYGSRRFGG [ROA3_HUMAN_373] 0.522
GRSSGSPYGGGYGSG [ROA3_HUMAN_360] 0.564
FGLSRDVYEEDSYVK [RET_HUMAN_900] 0.578
MMVKRRDYLDLAAST [RET_HUMAN_1015] 0.707
NVAAGQDYRNKAKAP [RAPH1_HUMAN_456_YA] 0.759
TNTGFPRYPNDSVYA [RET_HUMAN_1090] 0.651
TEIMSMGYEREQVIA [RD23B_HUMAN_202] 0.547
DILDREYYSVQQHRH [RON_HUMAN_1239] 1.23
YSPTSPKYSPTSPTY [RPB1_HUMAN_1874] 1.25
